For experiment [1], the system named is PTK7 on OE19 and OE21 cells. The experiment is described as follows: Flow cytometry staining of esophageal cancer cell lines with hu24. The experiment is classed as binding, human. To be noted: OE19 cells; 5 μg/mL; versus isotype control. Here is the method:
In another experiment, the saporin assay was performed on two cell lines derived from esophageal cancers, OE19 and OE21 (Sigma Aldrich). To determine PTK7 expression on the cell lines, the cells were cultured and single cell suspensions were isolated using Versene (Invitrogen). […] Cells were washed again in PBS/2% FCS, then incubated at 1:200 with anti-human Alexa Fluor647 (Jackson Immunoresearch) for 20 minutes. Cells were washed again, resuspended in DAPI, and then analyzed on a BD FACSCanto to determine the change in mean fluorescence intensity (ΔMFI).
(In general: In flow cytometry, cells or beads pass a laser one at a time.)

Another experiment concerns H446 cells. Put plainly: In vitro cytotoxicity, MTS, 4 days. The experiment is classed as cell-based, human. Here is the method: (§1) The cytotoxicity of the antibody-drug conjugate hu24-vc0101 was evaluated on cell lines that express the target PTK7. The engineered HEK293T-PTK7 over-expressing cell line was plated into a clear flat-bottom tissue culture plate (BD Falcon) at 500 cells per 180 μL of cell culture media per well. Human cancer cell lines were also tested in this assay and plated at a density that was previously determined to be optimal for each cell line according to their rate of growth (H661 1500 cells/well and H446 9600 cells/well in 150 μl). The cells were incubated overnight at 37° C. in a 5% CO2 incubator. On the following day, the hu24-vc0101 ADC and the 8.84 Ab-vc0101 ADC (negative control) were added to the cells on a 10 point concentration curve in triplicate samples starting with 3 or 10 μg/mL with 1:3 dilutions in cell culture media. The plate was incubated in a 37° C., 5% CO2 incubator for 4 days. The MTS assay (Promega CellTiter 96 Aqueous Non-Radioactive Cell Proliferation Assay) was used according to the supplier's instructions. 30 μL (H446, H661) or 40 μL (HEK293T-PTK7) of the combined MTS reagent was added to each well, and the plate was incubated in a 37° C., 5% CO2 incubator for 2 hours. The OD was determined at 490 nm with a 96-well plate reader. The average reading from wells with media alone was subtracted from the readings of wells with cells to control for background OD.

For a further experiment, the system named is H661 cells. Put plainly: In vitro cytotoxicity, MTS, 4 days. The experiment is classed as cell-based, human. Here is the method:
as §1

Experiment [2] concerns HEK293T-PTK7 over-expressing cell line. Put plainly: In vitro cytotoxicity, MTS, 4 days. To be noted: HEK293-PTK7. The experiment is classed as cell-based, human. Here is the method:
as §1

The test system of experiment [3] is BR36 PR+ breast cancer PDX. Put plainly: In vivo efficacy, PDX tumor growth. Also on record: species or system human tumor in mice. The conditions noted are these: 3 mg/kg. The source says: The effects of anti-PTK7 antibody-drug conjugates were further evaluated on the in vivo growth of human tumor patient-derived xenografts (PDX). Primary tumor resection samples were procured from clinical sites following Institutional Review Board for the Protection of Human Subjects approval and in accordance with HIPAA regulations. Tumor fragments were stored and shipped in Hypothermasol (Biolife Solutions) on ice and were embedded in Matrigel (BD) containing a proprietary mix of growth factors and implanted subcutaneously into the mammary fatpad of female NOD/SCID mice within 24 hours of resection. Mice were monitored for health status daily and for tumor growth initially by visual inspection twice per week. […]
For efficacy studies, tumors were harvested from passaging studies and cells were dissociated into single cell suspension. Preparations were counted for live cells using Trypan blue exclusion and 10,000 to 50,000 cells were inoculated per mouse in Matrigel. […]
Mice harboring BR36 human breast cancer xenografts were dosed Q4Dx4 with hu24-vc0101 ADC, paclitaxel, negative control ADC or vehicle. Tumor measurements were recorded twice a week using digital calipers and are shown as Mean±SEM. […]
Tumor growth inhibition (TGI) was calculated using the equation % TGI=[1−(mean tumor volume of treated)/(mean tumor volume of vehicle)]. […]

This is an account of results in US9777070B2, “Anti-PTK7 antibody-drug conjugates” (Pfizer Inc., priority 2014, dated 2017).

B1: hu24 (antibody)
heavy: QVQLVQSGPEVKKPGASVKVSCKASGYTFTDYAVHWVRQAPGKRLEWIGVISTYNDYTYNNQDFKGRVTMTRDTSASTAYMELSRLRSEDTAVYYCARGNSYFYALDYWGQGTSVTVSS[letters of human IgG1 constant region omitted]
light: EIVLTQSPATLSLSPGERATLSCRASESVDSYGKSFMHWYQQKPGQAPRLLIYRASNLESGIPARFSGSGSGTDFTLTISSLEPEDFAVYYCQQSNEDPWTFGGGTKLEIKRTVAAPSVFIFPPSDEQLKSGTASVVCLLNNFYPREAKVQWKVDNALQSGNSQESVTEQDSKDSTYSLSSTLTLSKADYEKHKVYACEVTHQGLSSPVTKSFNRGEC
Turning to B1, the “change in mean fluorescence intensity (ΔMFI)” value in experiment [1] is listed as 0.

B2: hu24-vc0101: hu24 conjugated through cysteines to vc0101 linker-payload; average DAR approximately 4 (conjugate)
heavy: QVQLVQSGPEVKKPGASVKVSCKASGYTFTDYAVHWVRQAPGKRLEWIGVISTYNDYTYNNQDFKGRVTMTRDTSASTAYMELSRLRSEDTAVYYCARGNSYFYALDYWGQGTSVTVSS[letters of human IgG1 constant region omitted]
light: EIVLTQSPATLSLSPGERATLSCRASESVDSYGKSFMHWYQQKPGQAPRLLIYRASNLESGIPARFSGSGSGTDFTLTISSLEPEDFAVYYCQQSNEDPWTFGGGTKLEIKRTVAAPSVFIFPPSDEQLKSGTASVVCLLNNFYPREAKVQWKVDNALQSGNSQESVTEQDSKDSTYSLSSTLTLSKADYEKHKVYACEVTHQGLSSPVTKSFNRGEC
B2: the “IC50 Values” in the experiment with H446 cells is recorded as 7.6 ± 5.0 ng/mL; with H661 cells, 27.5 ± 20.5 ng/mL; in experiment [2] it was 1.7 ng/mL. Besides, the “Regression (TTP, Days)” value in experiment [3] (Q4Dx4 ip) is “Regression (103) Days”. For the same molecule, in experiment [3] (BR36, Q4Dx4, FIG. 17), the “tumor regression without tumor growth through day” value was not below 103 days.
